The record followed here is patent US20230331823A1 (HENRY M JACKSON FOUNDATION FOR THE ADVANCEMENT OF MILITARY …, published 2023).

What all share (experiment): cell-based or functional assay
Assay [1] deals with T1, SARS-CoV-2 Beta (B.1.351) Spike on pseudovirions (SARS-CoV-2).
Assay [2] addresses T2, SARS-CoV-2 Alpha (B.1.1.7) Spike on pseudovirions (SARS-CoV-2).
Assay [3] deals with T1, SARS-CoV-2 Beta (B.1.351) Spike on …. The source holds these as a separate data set.
The target of assay [4] is T2, SARS-CoV-2 Alpha (B.1.1.7) Spike on …. The source holds these as a separate data set.

Read-outs that look alike come from different tables or passages of the source.

B1: ShAb13a (ShAb13 VNAR-3c-Fc) (Fc fusion)
chain: ARVDQTPRSVTKETGESLTINCVLRDASYALGSTCWYRKKSGSTNEERISKGGRYVETVNSGSKSFSLRINDLTVEDGGTYRCGVWPGYNWCGSCDYRGDYNFCGDGTAVTVNSREPKSCDKGLEVLFQ[no letters for human IgG1 Fc and a few adjoining residues]
As for B1, in assay [1], the “pseudovirus neutralization IC50” value was found to be 20.2 µg/mL and the “pseudovirus neutralization IC80” value was more than 50 µg/mL. For the same molecule, in assay [2], the “pseudovirus neutralization IC50” value is 13.4 µg/mL and the “pseudovirus neutralization IC80” value was more than 50 µg/mL.

B2: ShAb01H02K (ShAb01Hole-02Knob) (bispecific antibody)
chain 1: ARVDQTPRSVTKETGESLTINCVLRDSNCALSSTHWYRKKSGSTNEERILQGRRYVETVNSGSKSFSLRINDLRVEDSGTYRCKVYWGNSWQDKFCPGLGSYEYGDGTAVTVNSREPKSCDKGLEVLFQGP[no letters for human IgG1 Fc with Y407T (EU numbers)]
chain 2: ARVDQTPQTITKETGESLTINCVLRDSNCALASTDWYRKKSGSTNEESISKGGRYVETVNSGSKSFSLRINDLTVEDSGTYRCNAWDSWETRQLKCDYDVYGGGTVVTVNSREPKSCDKGLEVLFQGP[no letters for human IgG1 Fc with T366Y (EU numbers)]
In the case of B2, the “pseudovirus neutralization IC50” value in assay [1] was 0.011 µg/mL; in assay [2] it was less than 0.023 µg/mL; in assay [3], less than 20 ng/mL; in assay [4], less than 20 ng/mL. Also, the results for the “pseudovirus neutralization IC80” value in assay [1] and in assay [2] were 0.021 µg/mL and 0.046 µg/mL, respectively.

B3: ShAb11a (ShAb11 VNAR-3c-Fc) (Fc fusion)
chain: ARVDQTPQTITKETGESLTINCVLRDSNCTLSRTYWYRKKSGSTNLESISKGGRYVETVNSGSKSFSLRINDLTVEDSGTYRCASKIRYDCQGIIAYDIYGGGTVVTVNSREPKSCDKGLEVLFQ[no letters for human IgG1 Fc and a few adjoining residues]
On to B3, for which, in assay [1], the “pseudovirus neutralization IC50” value was found to be 22.2 µg/mL and the “pseudovirus neutralization IC80” value came out at 44.8 µg/mL. In addition, in assay [2], the “pseudovirus neutralization IC50” value is 1.84 µg/mL and the “pseudovirus neutralization IC80” value is 25.8 µg/mL.

B4: ShAb24a (ShAb24 VNAR-3c-Fc) (Fc fusion)
chain: ARVDQTPQTITKETGESLTINCVLRDSNCPLSSTYWYRKKSGSTNEESIPKAGRYVETVNHGSKSFSLRINDLTVEDSGTYRCKTASNVCRSGGRTSYHYDVYGDGTAVTVNSREPKSCDKGLEVLFQ[no letters for human IgG1 Fc and a few adjoining residues]
As for B4, the “pseudovirus neutralization IC50” value in assay [1] stood at 2.3 µg/mL; in assay [2], 2.1 µg/mL. Also, the “pseudovirus neutralization IC80” value in assay [1] and in assay [2] was more than 5 µg/mL each time.

B5: ShAb05a (ShAb05 VNAR-3c-Fc) (Fc fusion)
chain: ARVDQTPQTITKETGESLTINCVVRDSNCALGSTYWYRKKSGSTNEESITKGGRSVETVNSGSKSFSLRINDLTVEDSGTYRCKVLSIGWHDPMGLRGCDVYGGGTVVTVNSREPKSCDKGLEVLFQ[no letters for human IgG1 Fc and a few adjoining residues]
B5: in assay [1], the “pseudovirus neutralization IC50” value was more than 50 µg/mL and the “pseudovirus neutralization IC80” value is more than 50 µg/mL. Besides, in assay [2], the “pseudovirus neutralization IC50” value came to 31 µg/mL and the “pseudovirus neutralization IC80” value is more than 50 µg/mL.

B6: ShAb22a (ShAb22 VNAR-3c-Fc) (Fc fusion)
chain: ARVDQTPQTITKETGESLTINCVLRDNNCALSSTYWYREKSGSTNLESISLGGRYVETVNSGSKSFSLRINDLTVEDSGTYRCKVWGNEGSYDCGLESAVYGGGTVVTVNSREPKSCDKGLEVLFQ[no letters for human IgG1 Fc and a few adjoining residues]
Turning to B6, in assay [1], the “pseudovirus neutralization IC50” value was determined as 1.3 µg/mL and the “pseudovirus neutralization IC80” value was 3.22 µg/mL. Also, in assay [2], the “pseudovirus neutralization IC50” value is 0.525 µg/mL and the “pseudovirus neutralization IC80” value was determined as 0.97 µg/mL.

B7: ShAb29a (ShAb29 VNAR-3c-Fc) (Fc fusion)
chain: ARVDQTPQTITKETGESLTINCVLRDSNCALSRTYWYRKKSGSTDEESISKGGRYVETVNSGSKSFSLRINDLTVEDSGTYRCNVYSWYGGDHNSWDWRSDPAMVCGDVYGGGTVVTVNSREPKSCDKGLEVLFQ[no letters for human IgG1 Fc and a few adjoining residues]
With B7, in assay [1], the “pseudovirus neutralization IC50” value is 3 µg/mL and the “pseudovirus neutralization IC80” value was more than 5 µg/mL. Moreover, in assay [2], the “pseudovirus neutralization IC50” value is 3.3 µg/mL and the “pseudovirus neutralization IC80” value is more than 5 µg/mL.

B8: BiShAb21a (ShAb02 VNAR-25aa-ShAb01 VNAR-3c-Fc) (bispecific antibody)
chain: ARVDQTPQTITKETGESLTINCVLRDSNCALASTDWYRKKSGSTNEESISKGGRYVETVNSGSKSFSLRINDLTVEDSGTYRCNAWDSWETRQLKCDYDVYGGGTVVTVNGGGGSGGGGSGGGGSGGGGSGGGGSARVDQTPRSVTKETGESLTINCVLRDSNCALSSTHWYRKKSGSTNEERILQGRRYVETVNSGSKSFSLRINDLRVEDSGTYRCKVYWGNSWQDKFCPGLGSYEYGDGTAVTVNSREPKSCDKGLEVLFQ[no letters for human IgG1 Fc and a few adjoining residues]
In the case of B8, the “pseudovirus neutralization IC50” value in assay [1] stood at 0.026 µg/mL; in assay [2], 0.022 µg/mL; in assay [3], 30 ng/mL; in assay [4], 20 ng/mL. Also, the “pseudovirus neutralization IC80” value was found to be 0.045 µg/mL in assay [1] and 0.041 µg/mL in assay [2].

B9: ShAb08a (ShAb08 VNAR-3c-Fc) (Fc fusion)
chain: ARVDQTPKTITKETGESLTINCVLRDSNCAASSTYWYRKKSGSNNEESISKGGRYVETVNSGSKSFSLRINDLTVEDSGTYRCNVEGYSCGLYSVEDYYGGGTVVTVNSREPKSCDKGLEVLFQ[no letters for human IgG1 Fc and a few adjoining residues]
For B9, in assay [1], the “pseudovirus neutralization IC50” value was more than 50 µg/mL and the “pseudovirus neutralization IC80” value is more than 50 µg/mL. In addition, in assay [2], the “pseudovirus neutralization IC50” value was 10.5 µg/mL and the “pseudovirus neutralization IC80” value is more than 50 µg/mL.

B10: ShAb10a (ShAb10 VNAR-3c-Fc) (Fc fusion)
chain: ARVDQTPQTITKETGESLTINCVLRDSNCALSSTYWYRKKSGSTNEESISKGGRYVETVNSGSKSFSLRINDLTVEDSGTYRCHVRLRYDCESVIDFRVYGGGTVVTVNSREPKSCDKGLEVLFQ[no letters for human IgG1 Fc and a few adjoining residues]
For B10, in assay [1], the “pseudovirus neutralization IC50” value worked out at 8.15 µg/mL and the “pseudovirus neutralization IC80” value is 28.6 µg/mL. In assay [2], the “pseudovirus neutralization IC50” value was determined as 0.416 µg/mL and the “pseudovirus neutralization IC80” value was 2.89 µg/mL.

B11: ShAb12a (ShAb12 VNAR-3c-Fc) (Fc fusion)
chain: ARVDQTPRSVTKETGESLTINCVLRDTNCPLYAAYWYRKSPGSTNEETIWATGRYVQTVNSGLKTFSLRINDLTSEDSGTYRCNGQTWCPATKNNDISGGGTVVTVNSREPKSCDKGLEVLFQ[no letters for human IgG1 Fc and a few adjoining residues]
Consider B11, for which, in assay [1], the “pseudovirus neutralization IC50” value worked out at 17.3 µg/mL and the “pseudovirus neutralization IC80” value is more than 50 µg/mL. In addition, in assay [2], the “pseudovirus neutralization IC50” value is 3.95 µg/mL and the “pseudovirus neutralization IC80” value came out at 14.3 µg/mL.

B12: ShAb23a (ShAb23 VNAR-3c-Fc) (Fc fusion)
chain: ARVDQTPQTITKETGESLTINCVLRDSNCALGSTYWYRKKSGSTNEENISKGGRYVETVRSGSKSLSLRINDLTVEDSGTYRCKVSRLSWYPESRWNCDNYDVYGDGTAVTVNSREPKSCDKGLEVLFQ[no letters for human IgG1 Fc and a few adjoining residues]
As for B12, in assay [1], the “pseudovirus neutralization IC50” value amounted to 0.024 µg/mL and the “pseudovirus neutralization IC80” value was 0.104 µg/mL. Besides, in assay [2], the “pseudovirus neutralization IC50” value is 0.29 µg/mL and the “pseudovirus neutralization IC80” value is 1.18 µg/mL.

B13: ShAb06a (ShAb06 VNAR-3c-Fc) (Fc fusion)
chain: ARVDQTPRSVTKETGESLTINCVLRDASYALGSTCWYRKKSGSTNEESISKGGRYVETVNSGSKSFSLRINDLTVEDGGTYRCGVGRGLGVGCDYPLCSYSYAACGDGTAVTVNSREPKSCDKGLEVLFQ[no letters for human IgG1 Fc and a few adjoining residues]
As to B13, in assay [1], the “pseudovirus neutralization IC50” value stood at 27.2 µg/mL and the “pseudovirus neutralization IC80” value is more than 50 µg/mL. In assay [2], the “pseudovirus neutralization IC50” value turned out to be 6.81 µg/mL and the “pseudovirus neutralization IC80” value was found to be 36.3 µg/mL.

B14: ShAb07a (ShAb07 VNAR-3c-Fc) (Fc fusion)
chain: ARVDQTPQTITKETGESLTINCVLRDASYALGSTCWYRKKSGSTNWESIGKGGRYVETVNSGSKSFSLRINDLTVEDGGTYRCGVGRGAGVGCDYPLCSYSYAACGGGTVVTVNSREPKSCDKGLEVLFQ[no letters for human IgG1 Fc and a few adjoining residues]
For the molecule B14, the “pseudovirus neutralization IC50” value was more than 50 µg/mL in assay [1] and 13.7 µg/mL in assay [2]. Also, the “pseudovirus neutralization IC80” value in assay [1] and in assay [2] was more than 50 µg/mL throughout.
